About 540 (0.36%) of roughly 150,000 compounds showed an effect of 50% or more. Some of the results follow.
These compounds were tested on Plasmodium falciparum (assay: Primary screen in NF54 nanoGlo assay, in single point, at 2uM, 72h; a lower Z score goes with more inhibition). Conditions: timepoint 72 hour.
Assay type: functional, Erythrocyte
With `Cc1cccc(C(=O)Nc2cc(OCc3cccc(F)c3)c(Cl)cc2Cl)c1` the “% Inhibition” value was -1% and the Z score was 0.15. `Cc1cccc(CCNC(=O)Cn2nc(C)n(CCc3ccccc3)c2=O)n1` was tested, and the “% Inhibition” value was 5% and the Z score was -0.65. With `C[C@H]1Cc2ccccc2N1c1cc(C#N)ncn1` the “% Inhibition” value was -2% and the Z score was 0.25. In the case of `O=C(c1cccnc1)N1C[C@@H]2C[C@@H](O)CN2C2(CN(CC3CC3)C2)C1`, the “% Inhibition” value is reported as 2% and the Z score is reported as -0.37. For `Cc1cnn([C@@H](C)CNC(=O)c2c(Cl)c(C)nn2C)c1`, the “% Inhibition” value was -15% and the Z score was 1.29. For `Cn1cc([C@H]2CCCN(C(=O)c3cscn3)C2)cn1`, the “% Inhibition” value was -7% and the Z score was 1.4. In the case of `Cc1noc(C)c1CCCn1cnc2cnccc2c1=O`, the “% Inhibition” value is reported as -7% and the Z score is reported as 0.9. For `NC1=NC(c2ccccc2)(c2ccccc2)C(=O)N1`, the “% Inhibition” value was -8% and the Z score was 1.16. `O=C(CN(Cc1ccccc1)C(=O)c1ccc(F)c(F)c1)N1CCNCC1` was tested, and the “% Inhibition” value was -10% and the Z score was 1. With `Cc1cnc(CN2C[C@]3(CCCN(c4nccs4)C3)CCC2=O)cn1` the “% Inhibition” value was 1% and the Z score was -0.18. For `CCc1nsc(N[C@@H](C)C2(S(C)(=O)=O)CC2)n1`, the “% Inhibition” value was 4% and the Z score was -0.69. In the case of `O=C(c1sc2ccccc2c1Cl)N1CCCN(C(=O)c2sc3ccccc3c2Cl)CC1`, the “% Inhibition” value is reported as 1% and the Z score is reported as -0.18. For `Cc1csc([C@@H](C)CNC(=O)NCc2nc(C)no2)n1`, the “% Inhibition” value was 1% and the Z score was -0.19. `CC(CNC1CCCC(C#N)C1)N1CCCC1` (stereo unspecified) was tested, and the “% Inhibition” value was -4% and the Z score was 0.45. For `CN(C(=O)CCOc1cc(F)ccc1F)[C@H]1CCCc2c1cnn2C`, the “% Inhibition” value was -9% and the Z score was 0.84. With `CC(C)n1cc([C@H]2OCC[C@@H]2NC(=O)Nc2cnn(-c3ncccn3)c2)cn1` the “% Inhibition” value was -2% and the Z score was 0.31. For `CC(C)n1ccnc1CNC(=O)C[C@H]1COCCN1C(=O)c1ccc(C#N)nc1`, the “% Inhibition” value was -8% and the Z score was 1.64. For `CC(C)C(C)(C)S(=O)(=O)Cc1cc(C(F)(F)F)nn1C`, the “% Inhibition” value was -5% and the Z score was 0.81. For `COc1ccc(Br)cc1-c1nc(C(=O)NCCN2CCOCC2)cs1`, the “% Inhibition” value was -12% and the Z score was 2.13. For `Cc1nn(-c2ccccc2)c2sc(C(=O)n3ncc(-c4ccc5c(c4)OCO5)c3N)cc12`, the “% Inhibition” value was -15% and the Z score was 1.65. `Cc1nn(-c2ccc(Br)cc2)cc1-c1noc(C(=O)NCc2ccccn2)n1` was tested, and the “% Inhibition” value was -12% and the Z score was 1.53. In the case of `CN1CCCN(C(=O)C[C@@H](c2ccccc2)c2ccc(Cl)cc2)CC1`, the “% Inhibition” value is reported as 3% and the Z score is reported as -0.38. For `COc1ccc(CCNC(=O)C2C3C(=O)N(c4cc(C)on4)C[C@]34C=C[C@H]2O4)cc1` (stereo partly specified), the “% Inhibition” value was -6% and the Z score was 1.12. For `CCc1ccccc1S(=O)(=O)NC[C@H](C(=O)O)C(C)C`, the “% Inhibition” value was 2% and the Z score was -0.45. `Cn1c(=O)c2c(n(C)c1=O)[n+](C)cn2CC(=O)c1ccccc1` was tested, and the “% Inhibition” value was -2% and the Z score was 0.35. With `CCCn1nccc1S(=O)(=O)N1CCn2nc([C@@H](O)C3CC3)cc2C1` the “% Inhibition” value was -4% and the Z score was 0.88. With `CCC1CN(C(=O)Nc2ccc(C(N)=O)c(Cl)c2)C(CC)CN1CC(C)(C)O` (stereo unspecified) the “% Inhibition” value was -15% and the Z score was 1.85. `Cc1cc2c(N3CCC(N[C@@H](C)c4ccncn4)CC3)ncnc2s1` was tested, and the “% Inhibition” value was -6% and the Z score was 1.18. In the case of `CN(CCNC(=O)c1nnc(C(=O)Nc2ccccc2)s1)C1CCCCC1`, the “% Inhibition” value is reported as -17% and the Z score is reported as 1.6. `CC(C)c1ccc(C(=O)N2CCC[C@@](O)(C(F)(F)F)C2)nc1` was tested, and the “% Inhibition” value was -4% and the Z score was 0.55. With `COc1ccc([C@H]2CC(O)=Nc3c(C(=O)O)cn(-c4cccc(Cl)c4)c32)cc1O` the “% Inhibition” value was -28% and the Z score was 3.31. In the case of `CN(CC(=O)N1CC(OCc2ccccc2F)C1)Cc1ccccn1`, the “% Inhibition” value is reported as -7% and the Z score is reported as 1.01. In the case of `CCn1ccnc1CN1CC(F)(F)C(F)(F)C1`, the “% Inhibition” value is reported as -3% and the Z score is reported as 0.59. In the case of `CN(C)c1ncc(CN2CCS(=O)(=O)C(C)(C)C2)cn1`, the “% Inhibition” value is reported as -11% and the Z score is reported as 1.87. In the case of `COCCN1CCC[C@H](C(=O)N2CCCCCC2)C1`, the “% Inhibition” value is reported as -1% and the Z score is reported as 0.11. With `COCCCNC(=O)/C(=C/c1cn(-c2ccccc2)nc1-c1ccc(Cl)cc1)NC(=O)c1ccc(Cl)cc1Cl` the “% Inhibition” value was 1% and the Z score was -0.12. With `Cc1ccc(C2=Nc3ccc(S(=O)(=O)N4CCOCC4)cc3S(=O)(=O)N2)cc1` the “% Inhibition” value was -6% and the Z score was 0.98. For `C=C(C)CC(C)C(=O)N1CC2(C)CN(C)CC2(C)C1` (stereo unspecified), the “% Inhibition” value was 10% and the Z score was -1.32. With `O=C(NCc1ccc(F)c(Cl)c1)N1CCn2c1nc1ccccc12` the “% Inhibition” value was 7% and the Z score was -1.02. With `O=C1[C@@H]2CCCCN2C(=O)N1Cc1ccon1` the “% Inhibition” value was -3% and the Z score was 0.48. In the case of `CC(=O)N[C@@H](C)CC(=O)NCCC1(O)CCCC1`, the “% Inhibition” value is reported as -3% and the Z score is reported as 0.53. In the case of `N#Cc1ccc(OS(=O)(=O)c2cccs2)cc1`, the “% Inhibition” value is reported as -10% and the Z score is reported as 1.66. `O=C(O)[C@@H]1CN(C(=O)C2CC=CCC2)C[C@@H]1c1ccccc1` (stereo partly specified) was tested, and the “% Inhibition” value was -6% and the Z score was 1.1.

Source: ChEMBL document CHEMBL4888484, “Replenishing the malaria drug discovery pipeline: Screening and hit evaluation of the MMV Hit Generation Library 1 (HGL1) against asexual blood stage Plasmodium falciparum ,using a nano luciferase reporter read-out” (2022)
